# PubChem BioAssay (NCATS)
# Several values for one entry are separate records, joined by “and”; a condition that tells them apart may be missing. Identical values can stand only once. Inconclusive means that the source gave no clear call. Such entries were picked first, then a sample of the others. Where the call is inconclusive, the potency comes from a doubtful curve fit. Activity calls are given as the source filed them. Calls come from the whole dose curve; as a rule, active = well fitted curve in the direction sought with a large enough effect; inconclusive = small, poorly fitted or top-dose-only effect, or another doubt; inactive = no such curve, though single readings can be large; an effect the other way counts as inactive or inconclusive.
# Columns and labels:
# [1] = P-glycoprotein substrates identified in KB-8-5-11 adenocarcinoma cell line, qHTS therapeutic library screen (AID 1346987); note: nearly all actives have a fitted effect of over 65% in size
# Outline: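 P-gp-mediated resistance screen: KB-8-5-11 cells treated 72 h with compounds in dose-response. CellTiter-Glo viability.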
# CRL-7250 = normal cell line; test: Cytotoxic Profiling of Annotated Libraries Using Quantitative High-Throughput Screening (AID 1296008); details: Five cell lines viability, CellTiter-Glo ATP luminescence, 48-72 h; max response: stronger effect = lower value; note: nearly all actives have a fitted effect of over 60% in size
# Outline: (§1)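 Compounds were pin-transferred onto cells and incubated 48 or 72 hr at 37 degree Celsius, 95% humidity. CellTiter-Glo was added, plates sat 10 min at room temperature, then ATP-coupled luminescence was imaged as the viability read-out.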
# HaCat = test: as above; details: Five cell lines viability, CellTiter-Glo ATP luminescence, 48-72 h; max response: stronger effect = lower value
# Outline: as §1
# KB-3-1 = test: as above; details: Five cell lines viability, CellTiter-Glo ATP luminescence, 48-72 h; max response: stronger effect = lower value
# Outline: as §1
# NIH3T3 = test: as above; details: Five cell lines viability, CellTiter-Glo ATP luminescence, 48-72 h; max response: stronger effect = lower value
# Outline: as §1
# CAOV3 = test: Primary qHTS to identify gynecologic anti-cancer compounds using libraries of approved drugs and bioactive compounds (AID 1345084); details: Gynecologic cancer cell panel viability, ATPlite luminescence, 48 h; activity change, negative = cytotoxicity: at 57.5 µM (top of the series); note: nearly all actives have a fitted effect of over 55% in size
# Outline: (§2)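 Luminescence from the ATPlite ATP-monitoring reagent indicates viable cell number; lower signal means cytotoxicity. Cells received compound 16 h after seeding and were exposed for 48 h across five concentrations.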
# Es-2 = test: as above; details: Gynecologic cancer cell panel viability, ATPlite luminescence, 48 h; series mostly up to 57.5 µM
# Outline: as §2
# Hek293T = test: as above; details: Gynecologic cancer cell panel viability, ATPlite luminescence, 48 h, control line for the selectivity index; activity change, negative = cytotoxicity: at 57.5 µM (top of the series) unless noted
# Outline: as §2
# JEG-3 = test: as above; details: Gynecologic cancer cell panel viability, ATPlite luminescence, 48 h; series mostly up to 57.5 µM
# Outline: as §2
# OV90 = test: as above; details: Gynecologic cancer cell panel viability, ATPlite luminescence, 48 h; series mostly up to 57.5 µM
# Outline: as §2
# PA-1 = test: as above; details: Gynecologic cancer cell panel viability, ATPlite luminescence, 48 h; series mostly up to 57.5 µM
# Outline: as §2
# SKOV3 = test: as above; details: Gynecologic cancer cell panel viability, ATPlite luminescence, 48 h; series mostly up to 57.5 µM
# Outline: as §2
# [2] = Primary qHTS for inhibitors of nuclear receptor binding SET domain protein 2 (NSD2) in an isogenic RCH-ACV NSD2 p.E1099K mutant (9B) (AID 1645876); note: nearly all actives have a fitted effect of over 70% in size
# [3] = Primary qHTS for inhibitors of nuclear receptor binding SET domain protein 2 (NSD2) in an RCH-ACV wild type WT cells (2C) (AID 1645877); details: activity change, negative = cell killing: at 44.9 µM (top of the series) unless noted; note: nearly all actives have a fitted effect of over 70% in size
# C33A = test: Primary qHTS to identify gynecologic anti-cancer compounds using libraries of approved drugs and bioactive compounds (AID 1345084); details: Gynecologic cancer cell panel viability, ATPlite luminescence, 48 h; series mostly up to 57.5 µM; note: nearly all actives have a fitted effect of over 55% in size
# Outline: as §2
# Tov112D = test: as above; details: Gynecologic cancer cell panel viability, ATPlite luminescence, 48 h; series mostly up to 57.5 µM
# Outline: as §2
# Tov-21-G = test: as above; details: Gynecologic cancer cell panel viability, ATPlite luminescence, 48 h; activity change, negative = cytotoxicity: at 57.5 µM (top of the series) unless noted
# Outline: as §2
# CASKI = test: as above; details: Gynecologic cancer cell panel viability, ATPlite luminescence, 48 h; series mostly up to 57.5 µM
# Outline: as §2
# HeLa = test: as above; details: Gynecologic cancer cell panel viability, ATPlite luminescence, 48 h; activity change, negative = cytotoxicity: at 57.5 µM (top of the series)
# Outline: as §2
# [4] = tested on: Zika virus NS2B-NS3 protease (unlinked complex); test: Primary screen GU Rhodamine qHTS for Zika virus inhibitors: Unlinked NS2B-NS3 protease assay (AID 1347159); note: nearly all actives have a fitted effect of over 60% in size
# Outline: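 Noncovalent NS2B hydrophilic domain/NS3 protease complex (25 nM final) in 10 mM Tris-HCl pH 8.0, 0.01% Tween 20, preincubated 15 min with compounds (up to 114 microM), then 1.5 microM Rhodamine110 substrate. Fluorescence change over 15 min fitted to 4-parameter Hill.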
# Potency is the fitted concentration of half-maximal effect; tags give direction and shape of the fitted curve.
smiles,measurement,setting,value
CCn1c2ccccc2c2cc(Nc3ccnc(NCCCN4CCOCC4)n3)ccc21,Potency,[1],active: 20.6 µM
same,Potency,CRL-7250,active: 18.4 µM
same,Potency,HaCat,"inconclusive: 29.1 µM [inhibitor, single point]"
same,Potency,KB-3-1,"inconclusive: 18.4 µM [inhibitor, single point]"
same,Potency,NIH3T3,"inconclusive: 36.6 µM [inhibitor, single point]"
same,Potency,CAOV3,"inconclusive: 39.8 µM [cytotoxic, single point]"
same,Potency,Es-2,"inconclusive: 31.6 µM [cytotoxic, single point]"
same,Potency,Hek293T,"inconclusive: 35.5 µM [cytotoxic, single point]"
same,Potency,JEG-3,"inconclusive: 31.6 µM [cytotoxic, single point]"
same,Potency,OV90,"inconclusive: 22.4 µM [cytotoxic, single point]"
same,Potency,PA-1,"inconclusive: 39.8 µM [cytotoxic, single point]"
same,Potency,SKOV3,"inconclusive: 28.2 µM [cytotoxic, single point]"
c1ccc(-c2cnn3cc(-c4ccc(OCCN5CCOCC5)cc4)cnc23)cc1,Potency,[1],active: 1.64 µM
same,Potency,[2],"inconclusive: 4.09 µM [inhibitor, full curve]"
same,Potency,[3],"inconclusive: 4.09 µM [inhibitor, full curve]"
same,Potency,CRL-7250,"inconclusive: 8.2 µM [inhibitor, partial curve]"
same,outcome,HaCat,inactive
same,Potency,KB-3-1,"inconclusive: 6.51 µM [inhibitor, full curve]"
same,Potency,NIH3T3,"inconclusive: 5.8 µM [inhibitor, partial curve]"
same,Potency,C33A,"inconclusive: 5.62 µM [cytotoxic, full curve, poor fit]"
same,Potency,CAOV3,"inconclusive: 20 µM [cytotoxic, partial curve, poor fit]"
same,Potency,Es-2,"inconclusive: 25.1 µM [cytotoxic, single point]"
same,Potency,Hek293T,"inconclusive: 10 µM [cytotoxic, partial curve]"
same,Potency,OV90,"inconclusive: 3.98 µM [cytotoxic, partial curve, poor fit]"
same,Potency,PA-1,"inconclusive: 7.94 µM [cytotoxic, full curve]"
same,Potency,SKOV3,active: 15.8 µM
same,Potency,Tov112D,"inconclusive: 25.1 µM [cytotoxic, partial curve, poor fit]"
CNc1nc(-c2ccc3c(N)n[nH]c3c2)cc(N2CC(C(=O)NC3CCCCC3)CCC2C)n1 (centres undefined),Potency,[1],"inconclusive: 18.4 µM [inhibitor, single point]"
same,Potency,CRL-7250,"inconclusive: 1.16 µM [inhibitor, full curve]"
same,Potency,HaCat,"inconclusive: 29.1 µM [inhibitor, single point]"
same,Potency,KB-3-1,"inconclusive: 18.4 µM [inhibitor, single point]"
same,Potency,NIH3T3,"inconclusive: 14.6 µM [inhibitor, partial curve]"
same,Potency,CAOV3,"inconclusive: 7.94 µM [cytotoxic, partial curve]"
same,Potency,Hek293T,"inconclusive: 25.1 µM [cytotoxic, single point]"
same,Potency,JEG-3,"inconclusive: 31.6 µM [cytotoxic, single point]"
same,Potency,OV90,"inconclusive: 15.8 µM [cytotoxic, partial curve, poor fit]"
same,Potency,PA-1,"inconclusive: 39.8 µM [cytotoxic, single point]"
same,Potency,SKOV3,"inconclusive: 39.8 µM [cytotoxic, partial curve, poor fit]"
same,Potency,Tov-21-G,"inconclusive: 15.8 µM [cytotoxic, partial curve]"
Cc1cc(N2CCN(C(=O)Oc3ccc(-c4ccccc4)cn3)CC2)c2ccccc2n1,Potency,CRL-7250,"inconclusive: 20.6 µM [inhibitor, single point]"
same,Potency,HaCat,"inconclusive: 18.4 µM [inhibitor, single point]"
same,Potency,KB-3-1,"inconclusive: 9.2 µM [inhibitor, partial curve]"
same,Potency,NIH3T3,"inconclusive: 29.1 µM [inhibitor, single point]"
same,Potency,C33A,"inconclusive: 35.5 µM [cytotoxic, single point]"
same,Potency,CASKI,"inconclusive: 28.2 µM [cytotoxic, single point]"
same,Potency,Es-2,"inconclusive: 39.8 µM [cytotoxic, single point]"
same,Potency,Hek293T,"inconclusive: 25.1 µM [cytotoxic, single point]"
same,Potency,JEG-3,"inconclusive: 39.8 µM [cytotoxic, single point]"
same,Potency,OV90,"inconclusive: 39.8 µM [cytotoxic, single point]"
same,Potency,PA-1,"inconclusive: 14.1 µM [cytotoxic, partial curve]"
same,Potency,SKOV3,"inconclusive: 31.6 µM [cytotoxic, single point]"
C=C1[C@@H](C2=CC(=O)OC2)CC[C@@]2(O)[C@@H]1CC1[C@H]2CC[C@@H]2C[C@@H](O[C@H]3O[C@@H](C)[C@@H](O[C@@H]4O[C@H](CO[C@@H]5O[C@H](CO)[C@@H](O)[C@H](O)[C@H]5O)[C@@H](O)[C@H](O)[C@H]4O)[C@H](OC)[C@H]3O)CC[C@]12C (some centres undefined),Potency,[3],"inconclusive: 3.88 µM [inhibitor, single point]"
same,Potency,CRL-7250,"inconclusive: 4.37 µM [inhibitor, single point]"
same,Potency,HaCat,"inconclusive: 7.78 µM [inhibitor, single point]"
same,Potency,KB-3-1,"inconclusive: 6.93 µM [inhibitor, single point]"
same,outcome,NIH3T3,inactive
same,Potency,C33A,active: 3.55 µM
same,Potency,CAOV3,"inconclusive: 11.2 µM [cytotoxic, single point]"
same,Potency,Es-2,"inconclusive: 7.08 µM [cytotoxic, single point]"
same,Potency,HeLa,"inconclusive: 11.2 µM [cytotoxic, single point]"
same,Potency,Hek293T,"inconclusive: 5.62 µM [cytotoxic, single point]"
same,Potency,JEG-3,"inconclusive: 2 µM [rising, single point]"
same,Potency,PA-1,"inconclusive: 10 µM [cytotoxic, single point]"
same,Potency,SKOV3,"inconclusive: 11.2 µM [cytotoxic, single point]"
same,Potency,Tov-21-G,active: 3.16 µM
CC1(C)CC(NC(=O)C(=O)Nc2ccc(Br)cc2)CC(C)(C)N1,Potency,CRL-7250,"inconclusive: 25.9 µM [inhibitor, single point]"
same,Potency,HaCat,"inconclusive: 16.4 µM [inhibitor, partial curve]"
same,Potency,KB-3-1,active: 4.61 µM
same,Potency,NIH3T3,"inconclusive: 29.1 µM [inhibitor, single point]"
same,Potency,CAOV3,inactive
same,Potency,CASKI,"inconclusive: 39.8 µM [cytotoxic, single point]"
same,Potency,Es-2,"inconclusive: 31.6 µM [cytotoxic, single point]"
same,Potency,HeLa,active: 14.1 µM
same,Potency,Hek293T,"inconclusive: 22.4 µM [cytotoxic, partial curve]"
same,Potency,PA-1,"inconclusive: 39.8 µM [cytotoxic, single point]"
same,Potency,SKOV3,"inconclusive: 17.8 µM [cytotoxic, single point]"
same,Potency,Tov-21-G,"inconclusive: 39.8 µM [cytotoxic, single point]"
same,Potency,Tov112D,"inconclusive: 25.1 µM [cytotoxic, single point]"
COc1cc(C)c(Sc2cnc(NC(=O)c3ccc(CNC(C)C(C)C)cc3)s2)cc1C(=O)N1CCN(C(C)=O)CC1 (centres undefined),Potency,[4],"inconclusive: 79.4 µM [inhibitor, single point]"
same,Potency,[2],active: 8.33 µM and active: 7.28 µM
same,Potency,CRL-7250,"active: 23.5 µM and inconclusive: 29.1 µM [inhibitor, single point]"
same,Potency,HaCat,"active: 5.9 µM and inconclusive: 23.1 µM [inhibitor, single point]"
same,Potency,KB-3-1,"inconclusive: 23.5 µM [inhibitor, partial curve, poor fit]"
same,Potency,CAOV3,"inconclusive: 28.2 µM [cytotoxic, single point]"
same,Potency,CASKI,"inconclusive: 12.6 µM [cytotoxic, partial curve]"
same,Potency,Es-2,inactive
same,Potency,HeLa,"inconclusive: 11.2 µM [cytotoxic, partial curve]"
same,Potency,PA-1,active: 22.4 µM
same,Potency,SKOV3,"inconclusive: 35.5 µM [cytotoxic, single point]"
same,Potency,Tov-21-G,"inconclusive: 28.2 µM [cytotoxic, single point]"
same,Potency,Tov112D,"inconclusive: 28.2 µM [cytotoxic, partial curve, poor fit]"
C/C=C(/C)C(=O)O[C@H]1C=C(CO)C(=O)[C@H](OC(=O)/C(C)=C/CO)[C@H]1C(C)C,Potency,[1],"inconclusive: 11.4 µM [inhibitor, single point]"
same,Potency,[4],"inconclusive: 7.94 µM [inhibitor, full curve, poor fit]"
same,Potency,CRL-7250,"inconclusive: 20.2 µM [inhibitor, single point]"
same,Potency,HaCat,"inconclusive: 16.1 µM [inhibitor, single point]"
same,Potency,KB-3-1,"inconclusive: 11.4 µM [inhibitor, single point]"
same,Potency,C33A,active: 10 µM
same,Potency,CAOV3,active: 11.2 µM
same,Potency,CASKI,"inconclusive: 28.2 µM [cytotoxic, single point]"
same,Potency,Es-2,"inconclusive: 12.6 µM [cytotoxic, single point]"
same,Potency,HeLa,"inconclusive: 28.2 µM [cytotoxic, single point]"
same,Potency,Hek293T,"inconclusive: 12.6 µM [cytotoxic, single point]"
same,Potency,JEG-3,"inconclusive: 12.6 µM [cytotoxic, single point]"
same,Potency,OV90,"inconclusive: 28.2 µM [cytotoxic, single point]"
same,Potency,PA-1,"inconclusive: 28.2 µM [cytotoxic, single point]"
same,Potency,SKOV3,"inconclusive: 28.2 µM [cytotoxic, single point]"
same,Potency,Tov-21-G,"inconclusive: 11.2 µM [cytotoxic, single point]"
same,Potency,Tov112D,"inconclusive: 14.1 µM [cytotoxic, single point]"
Cc1c[nH]c2ncnc(N3CCC(CN)(C(=O)Nc4cccc(OC(=O)N(C)C)c4)CC3)c12,Potency,[1],"inconclusive: 11.6 µM [inhibitor, partial curve]"
same,Potency,[3],active: 10.5 µM and active: 11.8 µM
same,Potency,CRL-7250,"inconclusive: 8.2 µM [inhibitor, partial curve]"
same,Potency,HaCat,"inconclusive: 0.0461 µM [inhibitor, full curve, poor fit]"
same,Potency,KB-3-1,"inconclusive: 20.6 µM [inhibitor, single point]"
same,Potency,NIH3T3,"inconclusive: 29.1 µM [inhibitor, single point]"
same,Potency,C33A,"inconclusive: 2 µM [cytotoxic, full curve]"
same,Potency,Hek293T,"inconclusive: 1.41 µM [cytotoxic, full curve]"
same,Potency,OV90,active: 11.2 µM
same,Potency,SKOV3,active: 22.4 µM
same,Potency,Tov-21-G,"inconclusive: 5.01 µM [cytotoxic, partial curve, poor fit]"
